# Some of the results follow.
# B1: DC-ASGPR-short (Homo sapiens) (protein)
# chain: MTRTYENFQYLENKVKVQGFKNGPLPLQSLLQRLRSGPCHLLLSLGLGLLLLVIICVVGFQNSKFQRDLVTLRTDFSNFTSNTVAEIQALTSQGSSLEETIASLKAEVEGFKQERQAVHSEMLLRVQQLVQDLKKLTCQVATLNNNASTEGTCCPVNWVEHQDSCYWFSHSGMSWAEAEKYCQLKNAHLVVINSREEQNFVQKYLGSAYTWMGLSDPEGAWKWVDGTDYATGFQNWKPGQPDDWQGHGLGGGEDCAHFHPDGRWNDDVCQRPYHWVCEAGLGQTSQESH
# Columns and labels:
# Test in all cases: glycan array binding signal (z-score within array); higher = stronger binding
# Settings in all cases: glycan notation: IUPAC condensed, linker removed
# Fuc(a1-2)Gal = biological target: Fuc(a1-2)Gal
# Procedure, shortened: (§1)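 Glycan array data were curated from 3228 arrays in the Consortium for Functional Glycomics database and kept only where the protein sequence was available. Glycan names were converted to IUPAC-condensed notation, and columns mapping to the same glycan were averaged. The binding signal is a within-array Z-score, averaged across arrays of the same protein sequence at different concentrations or buffers and across linkers. Negative Z-scores can be read as non-binding.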
# Fuc(a1-2)Gal(b1-3)GalNAc = biological target: Fuc(a1-2)Gal(b1-3)GalNAc
# Procedure, shortened: as §1
# [1] = biological target: Fuc(a1-2)Gal(b1-3)GalNAc(a1-3)[Fuc(a1-2)]Gal(b1-4)Glc
# Procedure, shortened: as §1
# [2] = biological target: Fuc(a1-2)Gal(b1-3)GalNAc(a1-3)[Fuc(a1-2)]Gal(b1-4)GlcNAc
# Procedure, shortened: as §1
# [3] = biological target: Fuc(a1-2)Gal(b1-3)GalNAc(b1-3)Gal
# Procedure, shortened: as §1
# [4] = biological target: Fuc(a1-2)Gal(b1-3)GalNAc(b1-3)Gal(a1-4)Gal(b1-4)Glc
# Procedure, shortened: as §1
# [5] = biological target: Fuc(a1-2)Gal(b1-3)GalNAc(b1-4)[Neu5Ac(a2-3)]Gal(b1-4)Glc
# Procedure, shortened: as §1
# Fuc(a1-2)Gal(b1-3)GlcNAc = biological target: Fuc(a1-2)Gal(b1-3)GlcNAc
# Procedure, shortened: as §1
# [6] = biological target: Fuc(a1-2)Gal(b1-3)GlcNAc(b1-2)Man(a1-3)[Fuc(a1-2)Gal(b1-3)GlcNAc(b1-2)Man(a1-6)]Man(b1-4)GlcNAc(b1-4)GlcNAc
# Procedure, shortened: as §1
# [7] = biological target: Fuc(a1-2)Gal(b1-3)GlcNAc(b1-2)Man(a1-3)[Fuc(a1-2)Gal(b1-3)GlcNAc(b1-2)Man(a1-6)]Man(b1-4)GlcNAc(b1-4)[Fuc(a1-6)]GlcNAc
# Procedure, shortened: as §1
# [8] = biological target: Fuc(a1-2)Gal(b1-3)GlcNAc(b1-3)Gal(b1-4)Glc
# Procedure, shortened: as §1
# [9] = biological target: Fuc(a1-2)Gal(b1-3)GlcNAc(b1-3)GalNAc
# Procedure, shortened: as §1
# [10] = biological target: Fuc(a1-2)Gal(b1-3)GlcNAc(b1-3)[Fuc(a1-2)Gal(b1-3)GlcNAc(b1-6)]GalNAc
# Procedure, shortened: as §1
# [11] = biological target: Fuc(a1-2)Gal(b1-3)GlcNAc(b1-3)[Gal(b1-4)GlcNAc(b1-6)]Gal(b1-4)Glc
# Procedure, shortened: as §1
# [12] = biological target: Fuc(a1-2)Gal(b1-3)GlcNAc(b1-3)[Neu5Ac(a2-6)Gal(b1-4)GlcNAc(b1-6)]Gal(b1-4)Glc
# Procedure, shortened: as §1
# [13] = biological target: Fuc(a1-2)Gal(b1-3)GlcNAc6S
# Procedure, shortened: as §1
# [14] = biological target: Fuc(a1-2)Gal(b1-3)[Fuc(a1-4)]GlcNAc
# Procedure, shortened: as §1
# [15] = biological target: Fuc(a1-2)Gal(b1-3)[Fuc(a1-4)]GlcNAc(b1-2)Man(a1-3)[Fuc(a1-2)Gal(b1-3)[Fuc(a1-4)]GlcNAc(b1-2)Man(a1-3)]Man(b1-4)GlcNAc(b1-4)GlcNAc
# Procedure, shortened: as §1
# [16] = biological target: Fuc(a1-2)Gal(b1-3)[Fuc(a1-4)]GlcNAc(b1-2)Man(a1-3)[Fuc(a1-2)Gal(b1-3)[Fuc(a1-4)]GlcNAc(b1-2)Man(a1-6)]Man(b1-4)GlcNAc(b1-4)[Fuc(a1-6)]GlcNAc(b1-4)[Fuc(a1-6)]GlcNAc
# Procedure, shortened: as §1
# [17] = biological target: Fuc(a1-2)Gal(b1-3)[Fuc(a1-4)]GlcNAc(b1-3)[Fuc(a1-3)[Gal(b1-4)]GlcNAc(b1-6)]Gal(b1-4)Glc
# Procedure, shortened: as §1
# [18] = biological target: Fuc(a1-2)Gal(b1-3)[Fuc(a1-4)]GlcNAc(b1-3)[Gal(b1-4)GlcNAc(b1-6)]Gal(b1-4)Glc
# Procedure, shortened: as §1
# [19] = biological target: Fuc(a1-2)Gal(b1-4)Fuc(a1-3)]GlcNAc(b1-2)Man(a1-3)[Fuc(a1-2)Gal(b1-4)[Fuc(a1-3)]GlcNAc(b1-2)Man(a1-6)]Man(b1-4)GlcNAc(b1-4)GlcNAc
# Procedure, shortened: as §1
# Fuc(a1-2)Gal(b1-4)Glc = biological target: Fuc(a1-2)Gal(b1-4)Glc
# Procedure, shortened: as §1
# Fuc(a1-2)Gal(b1-4)Glc6S = biological target: Fuc(a1-2)Gal(b1-4)Glc6S
# Procedure, shortened: as §1
# Fuc(a1-2)Gal(b1-4)GlcNAc = biological target: Fuc(a1-2)Gal(b1-4)GlcNAc
# Procedure, shortened: as §1
# [20] = biological target: Fuc(a1-2)Gal(b1-4)GlcNAc(b1-2)Man
# Procedure, shortened: as §1
# [21] = biological target: Fuc(a1-2)Gal(b1-4)GlcNAc(b1-2)Man(a1-3)[Fuc(a1-2)Gal(b1-4)GlcNAc(b1-2)Man(a1-6)]Man(b1-4)GlcNAc(b1-4)GlcNAc
# Procedure, shortened: as §1
# [22] = biological target: Fuc(a1-2)Gal(b1-4)GlcNAc(b1-2)Man(a1-3)[Fuc(a1-2)Gal(b1-4)GlcNAc(b1-2)Man(a1-6)]Man(b1-4)GlcNAc(b1-4)[Fuc(a1-6)]GlcNAc
# Procedure, shortened: as §1
# [23] = biological target: Fuc(a1-2)Gal(b1-4)GlcNAc(b1-2)[Fuc(a1-2)Gal(b1-4)GlcNAc(b1-4)]Man(a1-3)[Fuc(a1-2)Gal(b1-4)GlcNAc(b1-2)Man(a1-6)]Man(b1-4)GlcNAc(b1-4)GlcNAc
# Procedure, shortened: as §1
# [24] = biological target: Fuc(a1-2)Gal(b1-4)GlcNAc(b1-3)Gal(b1-4)GlcNAc
# Procedure, shortened: as §1
binder,measurement,setting,value
B1,glycan array binding signal (z-score),Fuc(a1-2)Gal,-0.257
same,glycan array binding signal (z-score),Fuc(a1-2)Gal(b1-3)GalNAc,-0.273
same,glycan array binding signal (z-score),[1],-0.28
same,glycan array binding signal (z-score),[2],-0.266
same,glycan array binding signal (z-score),[3],-0.231
same,glycan array binding signal (z-score),[4],-0.258
same,glycan array binding signal (z-score),[5],0.016
same,glycan array binding signal (z-score),Fuc(a1-2)Gal(b1-3)GlcNAc,-0.264
same,glycan array binding signal (z-score),[6],-0.216
same,glycan array binding signal (z-score),[7],-0.173
same,glycan array binding signal (z-score),[8],-0.273
same,glycan array binding signal (z-score),[9],-0.271
same,glycan array binding signal (z-score),[10],-0.245
same,glycan array binding signal (z-score),[11],-0.273
same,glycan array binding signal (z-score),[12],-0.276
same,glycan array binding signal (z-score),[13],0.225
same,glycan array binding signal (z-score),[14],-0.274
same,glycan array binding signal (z-score),[15],-0.249
same,glycan array binding signal (z-score),[16],-0.25
same,glycan array binding signal (z-score),[17],-0.274
same,glycan array binding signal (z-score),[18],-0.276
same,glycan array binding signal (z-score),[19],-0.238
same,glycan array binding signal (z-score),Fuc(a1-2)Gal(b1-4)Glc,-0.265
same,glycan array binding signal (z-score),Fuc(a1-2)Gal(b1-4)Glc6S,-0.282
same,glycan array binding signal (z-score),Fuc(a1-2)Gal(b1-4)GlcNAc,-0.275
same,glycan array binding signal (z-score),[20],-0.271
same,glycan array binding signal (z-score),[21],-0.248
same,glycan array binding signal (z-score),[22],-0.189
same,glycan array binding signal (z-score),[23],-0.277
same,glycan array binding signal (z-score),[24],-0.279

# Reference: the supplement of paper PMC8728848
